Z-score data for 111 compounds are collected here from PubChem BioAssay AID488969 (Vanderbilt High Throughput Screening Facility, 2010).

Over roughly 110,000 compounds, “z-score” has its median near -0.1; the highest 2% begin near 2. This is one part of the list. Activity calls are given as the source filed them.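 The calls were made as follows: active = z-score in the third read window above 3 or below -3; inactive = the rest.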

The target in the assay is Metabotropic glutamate receptor 8 (Rattus norvegicus) (UniProt P70579). The assay is described as follows: rat mGluR8 modulators via GIRK flux, primary screen, cell-based, thallium flux, HTS (AID 488969). The note with it: HEK293 rat mGluR8, GIRK (G protein-gated inwardly rectifying potassium channel) thallium flux, FluoZin2; at 10 µM; stronger effect = higher value; submaximal glutamate (EC20) added with thallium.
UniProt P70579, sequence (P70579 whole entry, looked up): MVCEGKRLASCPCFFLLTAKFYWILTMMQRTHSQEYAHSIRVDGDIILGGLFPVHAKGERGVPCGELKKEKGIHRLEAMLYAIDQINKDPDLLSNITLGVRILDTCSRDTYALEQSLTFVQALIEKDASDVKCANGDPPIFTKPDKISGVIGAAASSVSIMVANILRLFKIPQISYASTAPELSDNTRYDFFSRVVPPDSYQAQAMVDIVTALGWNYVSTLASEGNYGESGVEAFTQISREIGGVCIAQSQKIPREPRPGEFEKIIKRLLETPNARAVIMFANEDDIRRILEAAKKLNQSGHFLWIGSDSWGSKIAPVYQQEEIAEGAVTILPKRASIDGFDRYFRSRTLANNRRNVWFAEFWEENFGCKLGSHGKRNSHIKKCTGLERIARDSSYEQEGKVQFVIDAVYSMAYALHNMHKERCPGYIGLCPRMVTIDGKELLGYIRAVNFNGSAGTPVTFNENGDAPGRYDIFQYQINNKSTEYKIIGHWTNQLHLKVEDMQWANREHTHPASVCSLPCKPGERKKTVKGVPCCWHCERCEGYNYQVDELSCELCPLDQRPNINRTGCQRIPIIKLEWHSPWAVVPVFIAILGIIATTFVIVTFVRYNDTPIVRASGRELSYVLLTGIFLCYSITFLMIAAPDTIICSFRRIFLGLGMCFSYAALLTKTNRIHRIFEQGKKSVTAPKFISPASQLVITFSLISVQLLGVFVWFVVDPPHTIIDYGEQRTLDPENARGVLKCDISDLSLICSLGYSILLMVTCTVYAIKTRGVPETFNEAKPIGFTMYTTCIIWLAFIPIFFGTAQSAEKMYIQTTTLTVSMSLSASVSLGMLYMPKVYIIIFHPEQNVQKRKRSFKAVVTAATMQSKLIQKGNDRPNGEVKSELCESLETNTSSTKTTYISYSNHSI
`COCCn1c(SCC(=O)N2CCCC2)nnc1C(C)C` registered a z-score of 0.377.
For the compound `CCNc1nc(Oc2ccc(=O)[nH]n2)nc(SC)n1`, the z-score was -0.413.
Under `CC(=O)SC(C)CC(=O)NCc1ccccc1` (stereo unspecified) stands -0.123; under `CNc1ccc(NC(C)=O)cc1[N+](=O)[O-]`, -0.0478; under `CCOc1nc(-c2ccccc2Cl)ccc1C#N`, -0.245.
Under `O=C(Nc1ccc([N+](=O)[O-])cc1)C1(c2ccccc2)CCOCC1` stands -0.322; under `CC(=O)Nc1ccc(S(=O)(=O)N2CCSCC2)cc1`, -0.212; under `O=C(Nc1cccnc1)C1(F)C(F)(F)C(F)(F)C(F)(F)C(F)(F)C1(F)F`, -0.383.
Under `Cc1cc(C)c2nc(C(F)(F)F)c(C#N)c(N)c2c1` stands -0.281.
As to `COc1ccccc1NC(=O)CNC(=O)c1ccccc1`, the z-score is -0.0616.
Under `COC(=O)c1cn(NC(=O)C2COc3ccccc3O2)c(=O)c2ccccc12` (stereo unspecified) stands -0.0811.
Turning to `COc1ccc(-n2c(=O)c3ccccc3n(CC(=O)NC3CCCC3)c2=O)c(OC)c1`, the z-score came to 0.165.
Regarding `Cc1cc(C(F)(F)F)nn1Cc1n[nH]c(=S)n1-c1cccc(Cl)c1`, the z-score is -0.0907.
Under `CC(C)C(=O)Nc1nnc(SCC(=O)NCc2ccco2)s1` stands -0.0924; under `COC(=O)Cc1cc(=O)[nH]c(/N=C(/NC(=O)c2ccccc2)Nc2ccccc2C)n1`, 0.0803.
`CN(C)CCCN(Cc1ccccc1)C(=S)Nc1cccc(C(F)(F)F)c1` showed a z-score of 1.48.
Under `Cc1cccc(C)c1NC(=O)CSc1ccc([N+](=O)[O-])cn1` stands -0.133; under `Cc1oc2ccc(NS(=O)(=O)c3cccc4cccnc34)cc2c1C(=O)OC(C)C`, 0.111.
Under `CCOC(=O)N1CCN(C(=O)CN(Cc2ccccc2)S(=O)(=O)c2ccc(OC)c(C)c2)CC1` stands -0.843.
To `CN(CCCCCC(=O)/C=N/O)Cc1ccccc1` belongs -0.147; to `O=C(CCCC(=O)OCC(Cl)=C(Cl)Cl)Nc1ccccc1`, 0.134; to `CC(=O)N1CCCc2ccccc21`, 0.0326.
On to `Cc1nn(-c2ccccc2)c(Cl)c1C(=O)NCCCCNC(=O)c1c(C)nn(-c2ccccc2)c1Cl`, for which the z-score was -0.3.
Under `COC(=O)CC(C(=O)Nc1cc(C(=O)OC)cc(C(=O)OC)c1)N1CCN(C)CC1` (stereo unspecified) stands 0.00897; under `CC(C)NC(=O)/C(C#N)=C/c1ccc2c(c1)OCCO2`, -0.394; under `Cc1cc(C)cc(N2C(=O)N(c3ccccc3C)C3CS(=O)(=O)CC32)c1` (stereo unspecified), 0.0681.
To `CC(C)(C)NC(=O)NC(=O)COC(=O)Cn1c(C(F)(F)F)nc2ccccc21` belongs 0.193.
Under `COc1ccc(OCC(=O)N2CCN(C(=O)c3cccc4ccccc34)CC2)cc1` stands -0.258.
`Nc1nc(COc2ccc3ccccc3c2)cs1` returned a z-score of 0.246.
To `O=C(NCc1ccccn1)C1CCCN(Cc2cnn(-c3ccccc3)c2-n2cccc2)C1` (stereo unspecified) belongs 0.219.
Under `O=C(NNS(=O)(=O)c1ccc(Cl)cc1)NC1CCCCC1` stands -0.389; under `Cc1ccc(-c2nnc(SC(C)C#N)n2N)cc1` (stereo unspecified), 0.313.
Under `Cc1ccc2nc(NCCCO)[nH]c2c1` stands -0.308.
For `CNc1cc(N2CCCCCC2)ccc1[N+](=O)[O-]`, the z-score was -0.663.
To `O=C(O)CCc1n[nH]c(=S)[nH]c1=O` belongs 1.36; to `CCCCNC(=O)N1CCOCCOCCN(C(=O)NCCCC)CCOCC1`, 0.0288.
Under `CCOC(=O)C1=NNC2(c3ccc(Cl)cc3)C(=O)N(c3cc(C)cc(C)c3)C(=O)C12` (stereo unspecified) stands 0.00802; under `Cc1cc(NC(=O)CCC(=O)N(c2ccccc2)C(C(=O)NC2CCCC2)c2ccncc2)no1` (stereo unspecified), -0.469; under `Cc1ccc(C(=O)Nc2nc(=O)n(C(=O)CC(C)C)s2)cc1`, -0.767.
To `CC(C)c1nnc(NC(=O)c2cccs2)s1` belongs 0.0786; to `CCOC(=O)C1=NN(C(=O)c2ccco2)C2(CC2)C1`, -0.239.
In turn, `CC1CC(=O)Nc2ccccc2N1S(=O)(=O)c1cccc(Cl)c1` (stereo unspecified) yielded a z-score of 0.365.
To `Cc1[nH]n(-c2ccccc2)c(=O)c1Sc1ccc(Cl)cc1` belongs -0.147; to `Cc1ccc(C(C)C)c(OCC(=O)Nc2ccc(N3CCN(S(C)(=O)=O)CC3)cc2)c1`, 0.391; to `COc1ccc(N2CCN(C(CNC(=O)C(=O)NCC3CCCO3)c3ccco3)CC2)cc1` (stereo unspecified), -0.215.
The compound `Cc1ccc(CSCC(N)C(=O)O)cc1` (stereo unspecified) returned a z-score of -0.223.
Under `C=CCNC(=O)c1csc(-c2ccccc2)n1` stands 0.0284; under `O=C(c1cc(F)c(F)cc1Cl)N1CCN(c2ccc([N+](=O)[O-])c3ncccc23)CC1`, -0.694; under `O=S(=O)(c1ccc(-c2ccccc2)cc1)N1CCOCC1`, 0.0509.
`CC(C)OP(=O)(OC(C)C)C1(O)C(=O)Nc2ccc(Br)cc21` (stereo unspecified) gave a z-score of 0.116.
To `O=S(=O)(Nc1cccnc1Cl)c1ccc2c(c1)OCCO2` belongs 0.122.
To `N#Cc1nc(COc2ccccc2)oc1N1CCCCC1` belongs -0.508.
Under `CC(=O)c1ccc2c(c1)C1C=CCC1C(c1ccc(S(=O)(=O)N3CCOCC3)cc1)N2` (stereo unspecified) stands 0.23; under `COC(=O)c1sccc1NC(=O)Cn1nnc(-c2ccc(C)cc2)n1`, -0.277; under `CCN(CC)Cc1c(O)ccc2c(=O)c(-c3ccc4c(c3)OCCO4)coc12`, -0.0589.
`Cc1ccccc1Oc1ncnc2sccc12` showed a z-score of 0.0113.
Compound `O=C(CN1CCCCCC1)N/N=C/c1cccc(Cl)c1Cl` returned a z-score of -0.302.
Under `c1csc(-c2ncc3ccccn23)c1` stands -0.279; under `CCn1cc(C2=NOC(C(=O)Nc3cccc(C(C)=O)c3)C2)c(C)n1` (stereo unspecified), 0.464.
To `O=C(CSc1ccc2nnc(-c3cccc(F)c3)n2n1)N1CCCc2ccccc21` belongs -0.911.
To `Cc1cc(=O)[nH]c(SCc2cccc(F)c2)n1` belongs -0.123; to `CC(C)(C)SCCNC(=O)/C=C/c1ccc([N+](=O)[O-])cc1`, 0.305; to `O=C(CNc1cccc2ccccc12)N/N=C/C(Br)=C/c1ccccc1`, 0.0269.
As for `CC(=O)N1CCc2cc(Br)cc(S(=O)(=O)NCCCN3CCC(C)CC3)c21`, the z-score was 0.0911.
With `O=C(NC1CCCCC1)N(Cc1ccccc1)Cc1ccco1`, the z-score was -1.83.
For `N#Cc1c(N)nc2c3c(sc(=N)c2c1N)NC(=O)CC3c1ccccc1Cl` (stereo unspecified), the z-score is 0.257.
To `COc1ccccc1NC(=O)c1sc2nc(-c3ccco3)ccc2c1N` belongs 0.132; to `CCCCCc1ccc(-c2ccc(=O)[nH]n2)cc1`, 0.519.
Under `COC(=O)c1cc(OC)c(OC)cc1-n1cnc2cc(OC)c(OC)cc2c1=O` stands -0.875; under `Cn1cccc1Cc1nnc(SCC(=O)N2CCOCC2)n1-c1ccc(F)cc1`, -0.171; under `N#CCCn1nc(-c2ccc([N+](=O)[O-])cc2)cc1Nc1ccccc1NC(=O)C(F)(F)F`, 0.0687.
Take `COc1ccc(Nc2nc(C(C)(C)C)nc3c2nnn3Cc2ccccc2Cl)cc1OC`: the z-score is -0.351.
Turning to `CCOC(=O)c1c(NC(=S)Nc2ccc(F)cc2)sc2c1CCC2`, the z-score was -0.154.
To `CCOC(=S)NC(=O)c1sc2ccccc2c1Cl` belongs active: 11.1; to `COc1cccc(-n2c(Cc3cc(=O)[nH]c(=O)[nH]3)nnc2SCC(=O)Nc2ccccc2)c1`, -0.16.
To `COc1ccc(OCC(=O)N2c3ccccc3CCc3ccccc32)cc1` belongs -0.352; to `Cc1cc(C)nc(SC2=CS(=O)(=O)c3ccccc32)n1`, 1.3.
Under `Cc1cccc(C(=O)NNS(=O)(=O)c2ccccc2[N+](=O)[O-])c1` stands -0.0425; under `CC(C)c1ccc(-c2noc(C3CCCN(S(C)(=O)=O)C3)n2)cc1` (stereo unspecified), active: 5.82.
In the case of `Cc1ccc(NC(=O)CS(=O)CC(=O)NC2CCN(Cc3ccccc3)CC2)c(C)c1` (stereo unspecified), the z-score worked out at 0.0772.
To `C/C=C/COC(=O)c1[nH]c2c(c1C)C(=O)CC(c1ccco1)C2` (stereo unspecified) belongs -0.237; to `N#CCCN(C(=O)COC(=O)c1ccc(CNS(=O)(=O)c2ccc(F)c(Cl)c2)cc1)c1ccc(F)cc1`, -0.724; to `O=C(CSc1oc(-c2ccco2)nc1S(=O)(=O)c1ccc(F)cc1)NCC1CCCO1` (stereo unspecified), 0.411.
To `COc1ccc(CC(C)N2CCN(c3cccc(C(F)(F)F)c3)CC2)cc1OC` (stereo unspecified) belongs -0.177; to `CCOC(=O)C(CC)Sc1nnc2cc(C)c3ccccc3n12` (stereo unspecified), active: 7.83.
To `O=C(CN(Cc1ccco1)C(=O)CCC(=O)Nc1ccccn1)NCCc1ccccc1` belongs -0.367; to `O=C(CN1C(=O)C2C3C=CC(C3)C2C1=O)Nc1cccc(S(=O)(=O)N2CCCC2)c1` (stereo unspecified), 0.101.
`COc1cc2[nH]c(=O)n(CCCCCC(=O)NCCCN3CCCC3=O)c(=O)c2cc1OC` registered a z-score of 0.129.
As to `Cc1ccc(C)c(NS(=O)(=O)c2cc(C(=O)Nc3ccccc3-c3ccccc3)ccc2C)c1`, the z-score is -0.321.
Regarding `Cc1cnn(-c2cc(N/N=C/c3ccccc3Cl)ncn2)c1`, the z-score is -0.0708.
To `CN(C)/C=C1\C(=O)N(c2ccc(Oc3ccccc3)cc2)CS1=O` (stereo unspecified) belongs -0.175.
To `CCCOC(=O)C1[C@H]2C(=O)N(C(C)c3ccc(OC)cc3)C[C@]23C=C[C@H]1O3` (stereo partly specified) belongs 0.656.
Under `O=C(CNC(c1ccccc1)c1ccccc1)Nc1ccccc1-c1ccccc1` stands -0.705.
Compound `O=C(Cn1c(=O)sc2ccccc21)Nc1ccc(S(=O)(=O)N2CCCC2)cc1` yielded a z-score of -0.343.
To `O=C1COc2ccccc2CN1` belongs -0.24; to `CC(C)OC(=O)CSc1nnc(-c2ccc(Cl)cc2Cl)n1N`, -0.215; to `COc1ccccc1NC(=O)N(Cc1ccccc1)c1ccccn1`, -0.245.
Under `Cc1csc(NC(=O)Cc2ccccc2[N+](=O)[O-])n1` stands 1.01.
To `O=C1CCCC(O)=C1C=Nc1ccc2c(c1)oc1ccccc12` belongs -0.13; to `Clc1ccc(OCCSc2nnnn2C2CCCCC2)cc1`, 0.215; to `CCCCOCCCNC(=O)c1ccc(OC)cc1`, 0.194.
The compound `Cc1cccc2nc(CSc3nc4ccccc4o3)cn12` registered a z-score of 1.34.
Under `Cc1cc(C)n(-c2nc3ccccc3c(=O)n2OCc2ccc(Cl)cc2)n1` stands -0.0989; under `CCP(=O)(c1ccccc1)C(C)(C)O` (stereo unspecified), 0.266; under `COc1ccc(NC(=O)CSc2nnc(Cc3cccn3C)n2-c2ccc(C)cc2)cc1OC`, 2.03.
To `COCc1cc(Sc2c(Cl)cccc2Cl)nc(-c2ccccc2)n1` belongs -0.0425.
Under `CC(C)=CC(=O)NCc1c(Cl)cccc1-n1cccc1` stands 0.225; under `Cc1ccc(SCCCn2cncn2)cc1`, -0.0811; under `Fc1ccc(N2CCN(c3ncnc4c3nnn4Cc3ccccc3Cl)CC2)cc1`, -1.25.
`Cc1ccc(-c2noc(CN(C(=O)c3cccc(Br)c3)C(C)C)n2)cc1`: the z-score was determined as 0.0303.
Turning to `CC1CCCN(C(=O)c2ccc(COc3ccccc3Br)cc2)C1` (stereo unspecified), the z-score was -0.14.
